Laboratory results taken from the supplement of paper PMC3334620.
Over roughly 33,000 sequences, “E-score (-0.5 to 0.5)” has its median near -0.012; the highest 2% begin near 0.27. The list shows a part of the results.

biological target: T1, Vhr1 (UniProt P40522); test: PBM E-score (8-mer binding enrichment) (E-score (-0.5 to 0.5)); higher = stronger / more preferred TF binding; most listed sequences are background and not binding sites; conditions: protein concentration: 200 nM; construct: GST-full length
T1 sequence: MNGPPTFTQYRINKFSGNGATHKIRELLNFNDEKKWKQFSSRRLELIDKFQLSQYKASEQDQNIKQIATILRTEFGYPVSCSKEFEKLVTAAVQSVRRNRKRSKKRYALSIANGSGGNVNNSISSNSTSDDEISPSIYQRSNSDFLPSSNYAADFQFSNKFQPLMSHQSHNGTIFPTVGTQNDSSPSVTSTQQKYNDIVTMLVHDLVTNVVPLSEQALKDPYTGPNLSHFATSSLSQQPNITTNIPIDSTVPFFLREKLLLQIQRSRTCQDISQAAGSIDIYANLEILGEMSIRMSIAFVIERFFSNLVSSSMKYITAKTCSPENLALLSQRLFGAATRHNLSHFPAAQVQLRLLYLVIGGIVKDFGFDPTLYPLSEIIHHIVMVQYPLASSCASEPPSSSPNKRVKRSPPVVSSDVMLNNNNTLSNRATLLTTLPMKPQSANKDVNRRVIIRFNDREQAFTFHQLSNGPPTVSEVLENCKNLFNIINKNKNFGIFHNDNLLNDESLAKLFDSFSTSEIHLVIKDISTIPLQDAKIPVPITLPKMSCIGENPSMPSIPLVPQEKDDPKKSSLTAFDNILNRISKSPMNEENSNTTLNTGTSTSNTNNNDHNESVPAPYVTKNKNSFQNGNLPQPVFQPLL
How it was run: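 PURExpress in vitro transcription/translation supplied GST-tagged yeast transcription factors, either full-length or DNA-binding domain. Applied at about 100-200 nM to universal all-10-mer Agilent arrays double-stranded by primer extension, the bound protein was detected with fluorescent anti-GST. E-scores, modified Wilcoxon-Mann-Whitney statistics, were given by the Universal PBM Analysis Suite to ungapped eight-base words pooled with their reverse complements after masliner normalisation.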

Row | Sequence | PBM E-score
1 | CCGAGGTC | 0.0282
2 | TCTCCTCA | -0.11
3 | GGAGTCTA | 0.0135
4 | ATCCTTAA | -0.179
5 | GCCTAAGA | -0.204
6 | GAGTCCGA | 0.308
7 | GTGACTAA | 0.428
8 | ACCCACGA | 0.215
9 | GAGGCTGA | -0.00874
10 | ATATCTCA | 0.0878
11 | GGCGAGTA | 0.0781
12 | TACGAGTA | 0.113
13 | AATGGATG | -0.00152
14 | ACAGGTAA | -0.191
15 | ACACAACA | 0.0209
16 | AATGTTTC | -0.186
17 | TCCCGAAA | -0.109
18 | AGTGGTAT | 0.00981
19 | AATCGCCA | -0.0266
20 | TCAAGGAA | -0.0565
21 | AAGAGTGC | -0.076
22 | ACAAGTAT | 0.0268

Row | Sequence | PBM E-score
23 | AATTTGGT | -0.0733
24 | ATGCTCCG | -0.19
25 | ACCACCCA | 0.192
26 | AGACTTAC | -0.161
27 | GTTCTGGA | -0.0347
28 | CCGTGTCC | 0.123
29 | ACGTATCA | 0.117
30 | CCAGGTAA | -0.0317
31 | AACTAATA | 0.218
32 | CAGCGCCG | -0.044
33 | CCCCTTCG | -0.155
34 | GCACATAA | 0.0338
35 | CCAGGTAC | 0.0626
36 | AACCTGCC | -0.121
37 | CGGAGAAA | -0.0281
38 | CAGCAGAC | -0.0587
39 | TATGTGAA | -0.0413
40 | GCCTAACC | 0.0418
41 | CAAAGTCC | -0.182
42 | TAGAGTAA | -0.082
43 | AGATCAAG | 0.0944
44 | AAGGTTCG | -0.272

Row | Sequence | PBM E-score
45 | GTTGGCAA | -0.0225
46 | GAAGTAGC | -0.125
47 | AACCACAT | 0.245
48 | GATGGGGA | 0.0051
49 | GTGGCCAA | 0.0173
50 | GGCCTTTA | -0.298
51 | ACCTGCGT | 0.0255
52 | CGCATACG | -0.0252
53 | CCTTAAGG | -0.15
54 | ATCAGTCC | -0.225
55 | GGGTTGAA | -0.137
56 | CGCTAGGA | -0.0889
57 | CGAGTAGA | -0.0457
58 | ACAAAATC | -0.0609
59 | ACTTGATG | 0.135
60 | GGGAATCA | 0.307
61 | CAAAGCCG | -0.295
62 | ACAAAAGT | -0.0668
63 | TAAAGGCA | -0.226
64 | AAGGGACG | -0.207
65 | AGGGGCCC | -0.126
66 | GCACAAGC | 0.0452

Row | Sequence | PBM E-score
67 | CTAATTAG | 0.00806
68 | ATTCAGAA | 0.0691
69 | AGAGCTAC | -0.161
70 | CGGCACTC | -0.153
71 | CCGAAGGA | 0.0169
72 | CACGATCC | 0.151
73 | GACTTTCA | -0.139
74 | GACAACCC | 0.103
75 | AGCGGATG | 0.0779
76 | ATACACGG | -0.0771
77 | TGATAGCA | 0.194
78 | CTGTCCGC | -0.0104
79 | AAATGATA | 0.0919
80 | ATGTAAAT | -0.0317
81 | TCCGTTAA | -0.0769
82 | CGGTTCCC | -0.0826
83 | GGGACAAA | -0.0798
84 | CTCCAGAC | 0.0448
85 | TAGGTTAA | 0.0291
86 | CAACCGCC | -0.102
